We go through eleven molecules from the supplement of paper PMC4604168 (melanoma cell lines).

The list shows a part of the results. Many values rest on one well or one pass, so single values are uncertain.
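Also: cells treated in 1,536-well plates, then fixed and DAPI-stained, with nuclei counted from automated high-throughput microscope images.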

This assay deals with COLO800. Kind of assay: cell count relative to DMSO control; melanoma cells; higher = more viable cells. The conditions noted are these: library dose: standard library concentration; 72 h.
In turn, `Nc1ncn([C@H]2C[C@H](O)[C@@H](CO)O2)c(=O)n1` [decitabine] + C#Cc1cccc(Nc2ncnc3cc(OCCOC)c(OCCOC)cc23)c1 [erlotinib] (first compound 0.5 µM, partner dose 4 µM) returned a cell count of 93%.
Then `CC(=O)O[C@@]12CO[C@@H]1C[C@H](O)[C@@]1(C)C(=O)[C@H](O)C3=C(C)[C@@H](OC(=O)[C@H](O)[C@@H](NC(=O)OC(C)(C)C)c4ccccc4)C[C@@](O)([C@@H](OC(=O)c4ccccc4)[C@H]21)C3(C)C` [Docetaxel] + OCc1c[nH]c2ccccc12 [Indole-3-carbinol] (first compound 0.0005 µM, partner dose 4 µM), with 64.1%.
With `CO[C@H]1C[C@@H]2CC[C@@H](C)[C@@](O)(O2)C(=O)C(=O)N2CCCC[C@H]2C(=O)O[C@H]([C@H](C)C[C@@H]2CC[C@@H](OCCO)[C@H](OC)C2)CC(=O)[C@H](C)/C=C(\C)[C@@H](O)[C@@H](OC)C(=O)[C@H](C)C[C@H](C)/C=C/C=C/C=C/1C` [everolimus] + COc1cc(Nc2ncc(F)c(Nc3ccc4c(n3)NC(=O)C(C)(C)O4)n2)cc(OC)c1OC [Tamatinib] (first compound 0.1 µM, partner dose 2 µM), the cell count is 36.5%.
`Nc1ncn([C@H]2C[C@H](O)[C@@H](CO)O2)c(=O)n1` [decitabine] + CN(C)S(=O)(=O)c1ccc2c(c1)/C(=C/c1cc3c([nH]1)CCCC3)C(=O)N2 [SU6656] (first compound 0.5 µM, partner dose 2 µM) displayed a cell count of 46.9%.
Then `CO[C@H]1C[C@@H]2CC[C@@H](C)[C@@](O)(O2)C(=O)C(=O)N2CCCC[C@H]2C(=O)O[C@H]([C@H](C)C[C@@H]2CC[C@@H](OCCO)[C@H](OC)C2)CC(=O)[C@H](C)/C=C(\C)[C@@H](O)[C@@H](OC)C(=O)[C@H](C)C[C@H](C)/C=C/C=C/C=C/1C` [everolimus] + COc1cc2ncnc(Nc3ccc(Oc4ccccc4)cc3)c2cc1OC [SrcI1] (first compound 0.1 µM, partner dose 10 µM), with 70.4%; and `CO[C@H]1C[C@@H]2CC[C@@H](C)[C@@](O)(O2)C(=O)C(=O)N2CCCC[C@H]2C(=O)O[C@H]([C@H](C)C[C@@H]2CC[C@@H](OCCO)[C@H](OC)C2)CC(=O)[C@H](C)/C=C(\C)[C@@H](O)[C@@H](OC)C(=O)[C@H](C)C[C@H](C)/C=C/C=C/C=C/1C` [everolimus] + COc1ccc(-c2ccc3c(N4CCOCC4)nc(N4C[C@@H](C)O[C@@H](C)C4)nc3n2)cc1CO [KU0063794] (first compound 0.1 µM, partner dose 0.1 µM), with 82.4%; and `CC(=O)c1c(C)c2cnc(Nc3ccc(N4CCNCC4)cn3)nc2n(C2CCCC2)c1=O` [palbociclib] + COc1ccc(Cl)c(Nc2nc3ccccc3nc2NS(=O)(=O)c2cccc(NC(=O)C(C)(C)N)c2)c1 [XL147] (first compound 0.2 µM, partner dose 4 µM), with 72.4%.
`CC(=O)c1c(C)c2cnc(Nc3ccc(N4CCNCC4)cn3)nc2n(C2CCCC2)c1=O` [palbociclib] + COc1ccc2c(c1)CCC1C2CCC2(C)C(NCCCCCCN3C(=O)C=CC3=O)CCC12 [U73122] (first compound 0.2 µM, partner dose 2 µM) registered a cell count of 102%.
Then `Nc1ccn([C@@H]2O[C@H](CO)[C@@H](O)C2(F)F)c(=O)n1` [gemcitabine] + CO[C@@H]1[C@H](N(C)C(=O)c2ccccc2)C[C@H]2O[C@]1(C)n1c3ccccc3c3c4c(c5c6ccccc6n2c5c31)C(=O)NC4 [Midostaurin] (first compound 0.002 µM, partner dose 0.4 µM), with 57%; and `Nc1ccn([C@@H]2O[C@H](CO)[C@@H](O)C2(F)F)c(=O)n1` [gemcitabine] + Cc1nc(Nc2ncc(C(=O)Nc3c(C)cccc3Cl)s2)cc(N2CCN(CCO)CC2)n1 [dasatanib] (first compound 0.002 µM, partner dose 0.02 µM), with 27.6%.
For `CC(=O)O[C@@]12CO[C@@H]1C[C@H](O)[C@@]1(C)C(=O)[C@H](O)C3=C(C)[C@@H](OC(=O)[C@H](O)[C@@H](NC(=O)OC(C)(C)C)c4ccccc4)C[C@@](O)([C@@H](OC(=O)c4ccccc4)[C@H]21)C3(C)C` [Docetaxel] + Cc1cc(Nc2cc(N3CCN(C)CC3)nc(/C=C/c3ccccc3)n2)n[nH]1 [ENMD2076] (first compound 0.0005 µM, partner dose 0.2 µM) the value was 32.1%.
